# Data published in patent publication US20240277663A1, “PHARMACEUTICAL KITS AND USES THEREOF FOR TREATING COLORECTAL CANCER” (priority 2023, published 2024).
# What was measured:
# [1] = system: colorectal cancer tumor; assay: Another batch: HDAC inhibitors (PCI-34051, elevenostat, ABT-301) with or without RMP1-14 in tumor-bearing mice; type: in vivo, mouse; conditions: another batch of experiments, data not shown; compared to vehicle group or to other combinations
# [2] = target: HDAC9 (Homo sapiens, UniProt Q9UKV0); assay: HDAC enzymatic activity assay (fluorogenic, Reaction Biology)
# [3] = target: T1, HDAC11 (Homo sapiens, UniProt Q96DB2); assay: as above
# T1 sequence (Q96DB2 1-347): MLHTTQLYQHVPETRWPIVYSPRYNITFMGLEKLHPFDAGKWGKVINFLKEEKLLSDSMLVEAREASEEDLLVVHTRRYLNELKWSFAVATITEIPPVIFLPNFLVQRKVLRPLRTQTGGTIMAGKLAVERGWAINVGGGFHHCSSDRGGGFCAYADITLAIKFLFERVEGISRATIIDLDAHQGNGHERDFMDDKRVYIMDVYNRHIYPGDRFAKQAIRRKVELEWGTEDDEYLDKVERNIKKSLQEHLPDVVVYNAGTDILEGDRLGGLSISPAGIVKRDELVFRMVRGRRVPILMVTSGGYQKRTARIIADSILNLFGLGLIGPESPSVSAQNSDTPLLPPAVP
# [4] = target: T2, HDAC7 (Homo sapiens, UniProt Q8WUI4); assay: as above
# T2 sequence (Q8WUI4 1-952): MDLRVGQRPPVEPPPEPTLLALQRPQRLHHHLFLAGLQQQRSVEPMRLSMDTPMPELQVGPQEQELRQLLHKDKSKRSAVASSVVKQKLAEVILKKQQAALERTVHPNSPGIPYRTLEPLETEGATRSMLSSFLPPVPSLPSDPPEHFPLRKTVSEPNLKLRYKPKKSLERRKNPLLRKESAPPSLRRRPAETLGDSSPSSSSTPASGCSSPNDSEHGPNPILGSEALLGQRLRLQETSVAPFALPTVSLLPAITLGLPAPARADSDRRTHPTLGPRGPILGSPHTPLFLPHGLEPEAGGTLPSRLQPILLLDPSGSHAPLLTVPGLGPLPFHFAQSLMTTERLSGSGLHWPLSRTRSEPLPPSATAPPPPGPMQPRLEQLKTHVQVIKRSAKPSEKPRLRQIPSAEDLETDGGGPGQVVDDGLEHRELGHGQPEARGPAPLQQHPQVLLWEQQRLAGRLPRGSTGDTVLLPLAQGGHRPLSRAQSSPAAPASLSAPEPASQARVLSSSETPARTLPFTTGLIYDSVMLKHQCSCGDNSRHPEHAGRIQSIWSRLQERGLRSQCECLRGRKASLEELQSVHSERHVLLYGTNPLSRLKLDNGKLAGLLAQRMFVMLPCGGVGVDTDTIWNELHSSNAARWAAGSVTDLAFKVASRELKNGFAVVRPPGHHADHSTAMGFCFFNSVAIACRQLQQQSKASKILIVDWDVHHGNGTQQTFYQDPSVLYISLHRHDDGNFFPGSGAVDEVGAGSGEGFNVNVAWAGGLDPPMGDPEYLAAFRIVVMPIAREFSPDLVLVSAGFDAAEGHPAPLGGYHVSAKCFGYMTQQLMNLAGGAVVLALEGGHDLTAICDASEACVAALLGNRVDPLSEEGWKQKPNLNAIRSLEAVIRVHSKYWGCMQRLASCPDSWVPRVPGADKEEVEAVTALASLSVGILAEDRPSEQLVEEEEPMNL
# [5] = system: CT26 allograft tumor (MSS subtype colorectal carcinoma); assay: CT26 subcutaneous tumor model, multiple doses of ABT-301 with or without avelumab; type: in vivo, mouse; conditions: alone or + avelumab 200 μg IP, n=10/group
# Method: Treatments were administered for indicated period (24 days) or until humane endpoints. Ten mice were used in each group. […] Avelumab was prepared with PBS.
# [6] = target: HDAC2 (Homo sapiens, UniProt Q92769); assay: HDAC enzymatic activity assay (fluorogenic, Reaction Biology)
# Chain of UniProt Q92769 (Q92769 whole entry): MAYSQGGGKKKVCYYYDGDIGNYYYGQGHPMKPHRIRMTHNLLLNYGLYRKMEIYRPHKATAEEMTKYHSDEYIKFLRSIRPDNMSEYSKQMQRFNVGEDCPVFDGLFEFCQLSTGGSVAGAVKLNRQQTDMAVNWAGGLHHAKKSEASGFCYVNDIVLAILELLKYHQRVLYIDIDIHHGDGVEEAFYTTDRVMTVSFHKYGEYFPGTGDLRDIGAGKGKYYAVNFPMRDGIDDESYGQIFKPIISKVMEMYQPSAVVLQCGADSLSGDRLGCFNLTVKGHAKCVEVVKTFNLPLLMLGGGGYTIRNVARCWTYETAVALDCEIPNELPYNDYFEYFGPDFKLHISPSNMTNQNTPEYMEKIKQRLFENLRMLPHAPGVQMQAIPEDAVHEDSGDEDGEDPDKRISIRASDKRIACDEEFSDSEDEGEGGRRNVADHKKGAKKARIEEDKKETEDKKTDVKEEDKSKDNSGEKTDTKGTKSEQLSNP
# Chain of UniProt Q9UKV0 (Q9UKV0 whole entry): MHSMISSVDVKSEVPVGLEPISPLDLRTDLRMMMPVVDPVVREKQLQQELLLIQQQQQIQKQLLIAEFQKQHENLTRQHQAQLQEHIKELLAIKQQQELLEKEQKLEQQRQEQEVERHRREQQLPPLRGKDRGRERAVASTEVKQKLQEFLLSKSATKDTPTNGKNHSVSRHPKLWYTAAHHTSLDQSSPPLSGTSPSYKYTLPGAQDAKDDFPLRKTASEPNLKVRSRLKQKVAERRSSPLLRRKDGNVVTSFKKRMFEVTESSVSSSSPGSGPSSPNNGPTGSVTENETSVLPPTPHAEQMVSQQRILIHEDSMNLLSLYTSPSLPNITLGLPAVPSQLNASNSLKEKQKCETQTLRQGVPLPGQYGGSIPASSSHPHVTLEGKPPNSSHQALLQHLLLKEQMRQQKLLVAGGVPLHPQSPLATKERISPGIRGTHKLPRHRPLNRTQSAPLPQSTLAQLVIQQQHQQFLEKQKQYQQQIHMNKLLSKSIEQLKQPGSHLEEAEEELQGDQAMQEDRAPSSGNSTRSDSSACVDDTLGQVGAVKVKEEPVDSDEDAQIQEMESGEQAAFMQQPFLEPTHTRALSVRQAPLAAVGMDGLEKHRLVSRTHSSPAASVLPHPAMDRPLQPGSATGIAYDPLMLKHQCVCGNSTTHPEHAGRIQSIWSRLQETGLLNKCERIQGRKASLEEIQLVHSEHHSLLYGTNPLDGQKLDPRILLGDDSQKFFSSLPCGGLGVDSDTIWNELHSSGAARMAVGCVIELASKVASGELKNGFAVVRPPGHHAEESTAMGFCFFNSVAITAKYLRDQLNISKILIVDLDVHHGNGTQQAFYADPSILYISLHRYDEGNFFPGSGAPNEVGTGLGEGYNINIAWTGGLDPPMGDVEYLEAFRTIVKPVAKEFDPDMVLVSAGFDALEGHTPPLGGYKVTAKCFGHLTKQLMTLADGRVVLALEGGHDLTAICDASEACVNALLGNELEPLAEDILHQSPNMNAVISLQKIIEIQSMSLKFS
compound,measurement,setting,value
"O=C(/C=C/c1ccc2c(c1)CCN2S(=O)(=O)c1ccccc1)NO [ABT-301, (E)-N-hydroxy-3-(1-(phenylsulfonyl)-indolin-5-yl)-acrylamide]",response in the mice on the growth of tumor,[1],did not elicit a visible response
same,IC50,[2],> 3 µM
same,IC50,[3],0.994 µM
same,IC50,[4],> 3 µM
same,number of mice exhibiting partial response (PR),[5]; ABT-301 25 mg/kg PO QD,1
same,number of mice exhibiting progressive disease (PD),[5]; ABT-301 25 mg/kg PO QD,9
same,number of mice exhibiting progressive disease (PD),[5]; ABT-301 100 mg/kg PO QD,8
same,IC50,[6],0.0932 µM
